Results taken from PubChem BioAssay AID485344 (National Center for Advancing Translational Sciences (NCATS), 2010).
Out of some 340,000 compounds screened, about 6,900 (2%) were called active. Rule as the data show it: active = inhibition above about 30%; inactive = below that, where a call was filed. Only a part is listed here, and it is no random draw. Entries without a call were filed so in the source.

Each molecule was assayed against D(2) dopamine receptor (Homo sapiens) (UniProt P14416) (assay: HTS Assay for Allosteric Antagonists of the Human D2 Dopamine Receptor: Primary Screen for Antagonists). Details: HEK293 TREx D2 cells, calcium flux, dopamine EC80; at 10 µM; stronger effect = higher value.
In short: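 Overnight-induced (tetracycline, 30 C) HEK293 T-REx cells carrying force-coupled D2 receive a no-wash calcium dye, then compound, then EC80 dopamine at 180 s; signals are read kinetically throughout.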
Also: 0% is about no effect.

Sequence of UniProt P14416 (P14416 whole entry, looked up): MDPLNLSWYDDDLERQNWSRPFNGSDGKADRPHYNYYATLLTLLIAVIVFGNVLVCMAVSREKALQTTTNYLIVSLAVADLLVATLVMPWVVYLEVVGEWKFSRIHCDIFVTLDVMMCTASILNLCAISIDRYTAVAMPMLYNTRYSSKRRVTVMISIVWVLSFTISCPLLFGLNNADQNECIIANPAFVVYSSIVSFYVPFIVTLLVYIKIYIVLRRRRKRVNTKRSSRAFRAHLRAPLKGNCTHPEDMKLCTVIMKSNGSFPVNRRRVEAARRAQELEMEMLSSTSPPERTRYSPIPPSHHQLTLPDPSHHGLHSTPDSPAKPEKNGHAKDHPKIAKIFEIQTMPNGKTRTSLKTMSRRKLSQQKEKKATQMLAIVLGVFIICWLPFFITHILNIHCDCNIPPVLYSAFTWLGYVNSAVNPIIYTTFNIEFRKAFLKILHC

First: COc1ccc(CNC(=O)C2CCC(CNS(=O)(=O)c3ccc4c(c3)CCCC(=O)N4)CC2)cc1 (centres undefined)
Second: COc1ccccc1CNC(=O)CN1C(=O)COc2ccc(S(=O)(=O)NC3CCCC3)cc21
The inhibition of the first is lower: -0.953% for the first, 5.12% for the second.

Going from Cc1noc(C)c1S(=O)(=O)N(CC(=O)NCCc1ccccc1)c1ccc(C(C)C)cc1 to CCCSc1ncc(Cl)c(C(=O)Nc2ccc(S(=O)(=O)N(C)c3ccccc3)cc2)n1, the inhibition rises from -7.24% to 8.74%.

First: CCOC(=O)c1c(NC(=O)c2ccc(S(=O)(=O)N(C)C3CCCCC3)cc2)sc2c1CCN(C(C)C)C2
Second: CCOC(=O)c1c(C)[nH]c(C)c1S(=O)(=O)N1CCC(C(=O)Nc2cc(Cl)ccc2OC)CC1
The inhibition of the first is higher: 3.41% for the first, 1.4% for the second.

Going from CCOCCCN1C(=O)c2ccccc2CC1(C)C(=O)NC1CCCCC1 (centres undefined) to COc1cccc(-n2c(=O)c3sc4ccccc4c3n(CC(=O)NC3CCCCC3)c2=O)c1, the inhibition falls from 5.17% to -9.12%.

Compared with COC(=O)c1ccccc1NC(=O)c1sc2nc(C)cc(C)c2c1NC(=O)c1ccccc1OC, Cc1cc(C)c(NC(=O)c2sc3nc(C)cc(C)c3c2NC(=O)c2ccccc2)c(C)c1 is higher in inhibition: -12.8% for the first, -6.98% for the second.

First: COc1ccc(NC(=O)C2=C(C)Nc3ncnn3C2c2cccn2C)cc1 (centres undefined)
Second: COc1ccc(NC(=O)c2cc(S(=O)(=O)N3CCOCC3)ccc2OC)cc1
The inhibition of the first is lower: 0.214% for the first, 3.47% for the second.

Going from CC(=O)Nc1ccc(S(=O)(=O)NC2=NCN(CCO)CN2)cc1 to CC(=O)N1CCc2cc(S(=O)(=O)C(C)CC(=O)Nc3ccc(Br)c(C)c3)ccc21 (centres undefined), the inhibition falls from 2.92% to -6.15%.

Going from O=C(C1CCN(S(=O)(=O)Cc2ccccc2)CC1)N1CCN(c2cccc(C(F)(F)F)c2)CC1 to CC(=O)c1ccc(N2CCN(C(=O)C3CCCN(S(=O)(=O)c4ccc(Br)s4)C3)CC2)cc1 (centres undefined), the inhibition falls from 2.34% to -8.79%.

First: Cc1cccc(-n2c(CNC(=O)c3cccc(F)c3)nnc2SCC(=O)Nc2ccccc2F)c1
Second: COc1cccc(CNC(=O)c2ccc3c(c2)c(C)c(C)n3Cc2ccccc2)c1
The inhibition of the first is higher: 25% for the first, 9.4% for the second.

Compared with CC1CCN(CC2CCN(C(=O)Nc3ccc(Br)cc3F)CC2)CC1, CC1CCCN(C(=O)CSc2c3c(nc4cc(Cl)ccc24)CCCC3)C1 (centres undefined) is higher in inhibition: -3.53% for the first, 15.4% for the second.

First: CCc1cccc(-n2c(=O)c3cccnc3n2CC(=O)Nc2c(C)cc(C)cc2C)c1
Second: Cc1cc(C)c(NC(=O)Cn2nc(-c3ccncc3)ccc2=O)c(C)c1
The inhibition of the first is lower: -6.39% for the first, 4.93% for the second.

First: COc1cc(S(=O)(=O)NCCc2c(C)[nH]c3ccccc23)c(C)cc1C
Second: CC1=C(c2ccc(C)c(C)c2)S(=O)(=O)NC1=NCc1ccccc1Cl
The inhibition of the first is higher: 15% for the first, 7.61% for the second.

Compared with COc1ccc(N(Cc2cc3cccc(C)c3[nH]c2=O)C(=O)c2cccc(Cl)c2)cc1, COc1ccc(Cn2c(C(=O)O)c(CNCc3ccccc3F)c3ccc(OC)cc32)cc1 is lower in inhibition: -2.07% for the first, -8.96% for the second.

First: CN(C)S(=O)(=O)c1ccc(C(=O)NCCSc2c(-c3ccccc3)[nH]c3ccccc23)cc1
Second: CCc1ccc(S(=O)(=O)Nc2cc3c(C(=O)OCc4ccccc4)c(C)oc3c3ccccc23)cc1
The inhibition of the first is higher: 6.55% for the first, -5.99% for the second.

First: COc1ccc2nc(N(Cc3cccnc3)C(=O)Cc3ccccc3)sc2c1
Second: COC(=O)c1ccc(C2c3c(-c4ccccc4O)n[nH]c3C(=O)N2Cc2cccnc2)cc1 (centres undefined)
The inhibition of the first is higher: 24.1% for the first, 10.7% for the second.

First: CCCn1c(=O)n(-c2ccccc2Cl)c(=O)c2sc3ccccc3c21
Second: CCCCn1c(SCC(=O)c2ccccc2)nc2c(sc3ccccc32)c1=O
The inhibition of the first is lower: 7.93% for the first, 13.5% for the second.

First: O=C(CN1C(=O)C(c2ccc(F)cc2)=NC12CCCCCC2)Nc1ccccc1Cl
Second: Cc1ccc(-c2nnc(Nc3cccc(Cl)c3)c3ccccc23)cc1S(=O)(=O)N1CCCCC1
The inhibition of the first is lower: 0.187% for the first, 9.76% for the second.

First: CC1=Nc2cc(C(=O)NCc3ccccc3Cl)ccc2Sc2c(C)ccc(C)c21
Second: O=C(CCn1cnc2ccccc2c1=O)NCc1ccccc1Cl
The inhibition of the first is higher: 6.27% for the first, -20.7% for the second.

First: COc1ccc(-c2ccc3c(N)c(C(=O)Nc4ccc(C(F)(F)F)cc4)sc3n2)cc1OC
Second: COc1ccc(-c2nnc(SCC(=O)NCCc3ccc(OC)c(OC)c3)nc2-c2ccc(OC)cc2)cc1
The inhibition of the first is higher: -10.8% for the first, -14.4% for the second.

Compared with Cc1ccc(C)c(N2CCN(S(=O)(=O)c3cc(-c4cc(C)no4)ccc3C)CC2)c1, CCC1CN(S(=O)(=O)c2cc(-c3cc(C)no3)ccc2C)c2cc(C)ccc2O1 (centres undefined) is lower in inhibition: 5.82% for the first, 2.3% for the second.

First: Cc1nc2cccnc2n1-c1cccc(C(=O)N2CCN(c3cccc(Cl)c3)CC2)c1
Second: Cc1nc2c(-c3ccc(F)cc3)c(C)nn2c(C)c1CCC(=O)N1CCN(c2ccccc2)CC1
The inhibition of the first is higher: 27.7% for the first, 23.4% for the second.

Compared with Cc1ccc(-n2nc(CO)c(C(=O)NCCCCc3ccccc3)n2)cc1C, CCN(CCCNC(=O)Cn1ncc2c3ccccc3n(C)c2c1=O)Cc1ccccc1 is higher in inhibition: -12.8% for the first, -4.63% for the second.

Compared with Cc1ccc(-n2nc3ccc(NC(=O)COc4ccccc4C)cc3n2)cc1, CCc1ccc(CNC(=O)c2nn(-c3ccc(C)cc3)c(=O)c3c2c2ccccc2n3C)cc1 is lower in inhibition: -1.82% for the first, -4.79% for the second.

First: CCN(C(=O)Cn1nnc2sc3c(c2c1=O)CCC(C(C)(C)C)C3)c1cccc(C)c1 (centres undefined)
Second: CCOc1ccccc1N(CC)C(=O)Cn1ncc2c([nH]c3ccccc32)c1=O
The inhibition of the first is lower: -11.8% for the first, 1.26% for the second.

Compared with COC(=O)c1cc2oc3ccccc3c2n1Cc1nc(-c2ccc(Cl)cc2)oc1C, O=C(Nc1cc(-c2nc3cc(Cl)ccc3o2)ccc1Cl)c1ccco1 is lower in inhibition: -6.6% for the first, -14.5% for the second.

First: Cc1ccc(S(=O)(=O)N(CC(=O)Nc2ccc3c(c2)OCO3)c2cc(Cl)cc(Cl)c2)cc1
Second: COc1ccc(-c2nc(C)c(CCNS(=O)(=O)c3cc(Cl)ccc3Cl)s2)cc1
The inhibition of the first is lower: -12.7% for the first, 2.51% for the second.

Compared with Cc1cc(OCC(=O)Nc2ncn[nH]2)ccc1Cl, CCc1nn2c(=O)cc(COC(=O)COc3ccc(OC)cc3)nc2s1 is lower in inhibition: 16.4% for the first, 16.1% for the second.

Compared with CCN(CC)S(=O)(=O)c1ccc(OC)c(-n2cnnn2)c1, COc1ccc(OC)c(NS(=O)(=O)c2ccc3c(c2)C(C)(C)C(=O)N3C)c1 is higher in inhibition: -9.96% for the first, 22.9% for the second.

First: CCCCC(=O)NC1CC(=O)N(c2ccc3c(c2)OCCO3)C1 (centres undefined)
Second: CCC(=O)N1c2ccccc2CC1C(=O)NCCc1ccc(OC)c(OC)c1 (centres undefined)
The inhibition of the first is lower: 2.96% for the first, 5.88% for the second.

Compared with Cc1c(NC(=O)c2ccc(-c3cccc([N+](=O)[O-])c3)o2)cccc1-c1nc2cc(Cl)ccc2o1, Clc1cccc(-c2ccc(CNCCSc3nnnn3-c3ccccc3)o2)c1 is lower in inhibition: -4.13% for the first, -24.6% for the second.

Going from Cn1c(=O)oc2cc(S(=O)(=O)NCCC(=O)Nc3ccc(F)cc3F)ccc21 to COC(=O)CN1C(=O)CSc2ccc(S(=O)(=O)Nc3cc(C)ccc3C)cc21, the inhibition falls from 13.5% to -8.54%.

Compared with CCOC(=O)c1cc2c(=O)n3ccccc3nc2n(CCOC)c1=NC(=O)c1c(-c2ccccc2Cl)noc1C, COc1ccccc1C(=O)Nc1cccc(C(=O)OCc2cc(=O)n3cc(C)sc3n2)c1 is higher in inhibition: -15.6% for the first, 0.894% for the second.

Compared with O=C(CNC(=O)c1ccc(F)cc1)OCc1cc(=O)n2nc(C3CC3)sc2n1, NC(=O)C1CCN(C(=O)c2ccc(NC(=O)c3nsc4ccccc34)cc2)CC1 is lower in inhibition: -2.25% for the first, -6.85% for the second.

Going from CCc1nc2nc(C)c(NS(=O)(=O)c3ccc(C(C)(C)C)cc3)c(=O)n2[nH]1 to COc1ccc(S(=O)(=O)Nc2cccc(-c3ccc(N4CCCC4)nn3)c2)c(OC)c1, the inhibition rises from 0.405% to 9.73%.

Going from CCOC(=O)c1sc2ncn(CC(=O)Nc3ccc(OCC)cc3)c(=O)c2c1C to CCc1ccc(NC(=O)CSc2nc(=O)n(Cc3ccccn3)c3c2CCC3)cc1, the inhibition rises from -0.934% to 19.5%.

Compared with Cc1c(C(=O)Nc2cccc(C(F)(F)F)c2)oc2ccc3c(c12)C(=O)CC(C)(C)O3, Cc1ccc(C)c(NC(=O)N2CCN(C(=O)c3nsc4ccccc34)CC2)c1 is lower in inhibition: 2.81% for the first, -12.2% for the second.

First: CCOc1ccc(CCNC(=O)c2cn(C)c3ccc(S(=O)(=O)N4CCCCC4)cc3c2=O)cc1OCC
Second: COc1ccc(S(=O)(=O)N2CCC(C(=O)Nc3ccc(Oc4ccccc4)cc3)CC2)cc1
The inhibition of the first is higher: 7.33% for the first, -22.2% for the second.

Compared with O=C(c1ccccc1)N1CCN(CCc2ccncc2)CC1, Cc1nnc(N2CCC(C(=O)NC3CCCCC3)CC2)c2nn(-c3ccccc3)c(C)c12 is lower in inhibition: 27% for the first, 10.4% for the second.

COc1ccc(CNC(=O)c2cc3cc4cc(OC)ccc4nc3o2)cc1 was tested, and the inhibition was 10.5%.

With CC(=O)Nc1ccc(C(=O)COC(=O)c2cccs2)c(F)c1 the inhibition was active: 34.7%.
In the case of O=C(N/N=C/c1cccc([N+](=O)[O-])c1)c1cc2ccccc2o1, the inhibition is reported as active: 32.9%.
For COc1ccc(NS(=O)(=O)c2cccc(C(=O)NCC(c3ccco3)N(C)C)c2)cc1 (centres undefined), the inhibition was active: 36.5%.
For CN(C)C(=O)/C(=C\c1ccncc1)NC(=O)c1ccccc1, the inhibition was active: 39.2%.
With O=C(COC(=O)c1cc[n+]([O-])cc1)Nc1ccc(SC(F)F)cc1 the inhibition was active: 30.6%.
In the case of O=C(Nc1cc(C(F)(F)F)ccc1-n1cncn1)c1ccc(F)cc1Cl, the inhibition is reported as active: 34.8%.
With Cc1cccc2c3c([nH]c12)CCN(C)C3 the inhibition was active: 66.1%.
For O=C(NCc1ccccc1)C(=O)Nc1nc(C23CC4CC(CC(C4)C2)C3)cs1, the inhibition was active: 32.2%.
With COc1ccc(CNc2nc(NCc3ccc(OC)cc3)c3[nH]cnc3n2)cc1 the inhibition was active: 41.6%.
With Cc1ccc(OCCCCN2CCC(C)CC2)cc1 the inhibition was active: 48.9%.
In the case of O=C(Nc1ccc(S(=O)(=O)N2CCCC2)cc1)c1ccc(CN2CCc3ccccc3C2)cc1, the inhibition is reported as active: 64%.
For CCC(=O)Nc1cccc(NC(=O)c2ccc(C)cc2Cl)c1, the inhibition was active: 34.6%.
COc1cc(CN2CCC(C(=O)N3CCN(c4ccccc4F)CC3)CC2)ccc1O was tested, and the inhibition was active: 38.7%.
Cc1noc(C)c1COc1ccc(C(=O)OC(C)C(=O)Nc2ccc(N3CCOCC3)cc2)cc1 (centres undefined) was tested, and the inhibition was active: 44.7%.
For O=C(CNC1CCN(Cc2ccccc2)CC1)Nc1ccc(S(=O)(=O)N2CCCCC2)cc1, the inhibition was active: 37%.
With CCOc1ccccc1-c1nc(CN2CCCN(C(=O)c3ccco3)CC2)c(C)o1 the inhibition was active: 32.8%.
COc1cccc(CN(C)C(=O)CNC(=O)c2cccs2)c1OC was tested, and the inhibition was active: 37.6%.
